Positions count from the first letter of the chain named. This is one part of the list.
T1: RBFOX1 RRM (Homo sapiens, UniProt Q9NWB1 109-208)
T1 sequence: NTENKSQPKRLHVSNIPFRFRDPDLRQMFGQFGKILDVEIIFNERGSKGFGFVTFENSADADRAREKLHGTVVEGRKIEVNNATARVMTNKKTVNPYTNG

B1: GCCUCGG (DNA:RNA)
RNA: GGGAGACCGGAAUUCAGAUUGUCCGCCUCGGUUAAAUCCCGUCGUAGCCACCA
DNA 1: CAATCTGAATTCCGGTCTCCC
DNA 2: TGGTGGCTACGACGGGATT
B2: CAGAUUG (DNA:RNA)
RNA: B1 RNA with G25C, C26A, C27G, U28A, C29U, G30U
DNA 1: CAATCTGAATTCCGGTCTCCC
DNA 2: TGGTGGCTACGACGGGATT
B3: AAAGCCA (DNA:RNA)
RNA: B1 RNA with G25A, C26A, C27A, U28G, G30C, G31A
DNA 1: CAATCTGAATTCCGGTCTCCC
DNA 2: TGGTGGCTACGACGGGATT
B4: GCAAGAG (DNA:RNA)
RNA: B1 RNA with C27A, U28A, C29G, G30A
DNA 1: CAATCTGAATTCCGGTCTCCC
DNA 2: TGGTGGCTACGACGGGATT
B5: CAACAAG (DNA:RNA)
RNA: B1 RNA with G25C, C26A, C27A, U28C, C29A, G30A
DNA 1: CAATCTGAATTCCGGTCTCCC
DNA 2: TGGTGGCTACGACGGGATT
B6: UUCCACU (DNA:RNA)
RNA: B1 RNA with G25U, C26U, U28C, C29A, G30C, G31U
DNA 1: CAATCTGAATTCCGGTCTCCC
DNA 2: TGGTGGCTACGACGGGATT
B7: AGCGCUC (DNA:RNA)
RNA: B1 RNA with G25A, C26G, U28G, G30U, G31C
DNA 1: CAATCTGAATTCCGGTCTCCC
DNA 2: TGGTGGCTACGACGGGATT
B8: CAAUACG (DNA:RNA)
RNA: B1 RNA with G25C, C26A, C27A, C29A, G30C
DNA 1: CAATCTGAATTCCGGTCTCCC
DNA 2: TGGTGGCTACGACGGGATT
B9: ACCUGCC (DNA:RNA)
RNA: B1 RNA with G25A, C29G, G30C, G31C
DNA 1: CAATCTGAATTCCGGTCTCCC
DNA 2: TGGTGGCTACGACGGGATT
B10: GAAGCAU (DNA:RNA)
RNA: B1 RNA with C26A, C27A, U28G, G30A, G31U
DNA 1: CAATCTGAATTCCGGTCTCCC
DNA 2: TGGTGGCTACGACGGGATT
B11: CACUCUC (DNA:RNA)
RNA: B1 RNA with G25C, C26A, G30U, G31C
DNA 1: CAATCTGAATTCCGGTCTCCC
DNA 2: TGGTGGCTACGACGGGATT
B12: AUGGUAA (DNA:RNA)
RNA: GGGAGACCGGAAUUCAGAUUGUCCAUGGUAAUUAAAUCCCGUCGUAGCCACCA
DNA 1: CAATCTGAATTCCGGTCTCCC
DNA 2: TGGTGGCTACGACGGGATT
B13: GCUAGAC (DNA:RNA)
RNA: B1 RNA with C27U, U28A, C29G, G30A, G31C
DNA 1: CAATCTGAATTCCGGTCTCCC
DNA 2: TGGTGGCTACGACGGGATT
B14: UACGGUA (DNA:RNA)
RNA: B12 RNA with A25U, U26A, G27C, U29G, A30U
DNA 1: CAATCTGAATTCCGGTCTCCC
DNA 2: TGGTGGCTACGACGGGATT
B15: UUUCUUC (DNA:RNA)
RNA: B12 RNA with A25U, G27U, G28C, A30U, A31C
DNA 1: CAATCTGAATTCCGGTCTCCC
DNA 2: TGGTGGCTACGACGGGATT
B16: GCGGACC (DNA:RNA)
RNA: B12 RNA with A25G, U26C, U29A, A30C, A31C
DNA 1: CAATCTGAATTCCGGTCTCCC
DNA 2: TGGTGGCTACGACGGGATT
B17: UAUACUA (DNA:RNA)
RNA: B12 RNA with A25U, U26A, G27U, G28A, U29C, A30U
DNA 1: CAATCTGAATTCCGGTCTCCC
DNA 2: TGGTGGCTACGACGGGATT
B18: GAAGCUA (DNA:RNA)
RNA: B12 RNA with A25G, U26A, G27A, U29C, A30U
DNA 1: CAATCTGAATTCCGGTCTCCC
DNA 2: TGGTGGCTACGACGGGATT
B19: AGACAAA (DNA:RNA)
RNA: B12 RNA with U26G, G27A, G28C, U29A
DNA 1: CAATCTGAATTCCGGTCTCCC
DNA 2: TGGTGGCTACGACGGGATT
B20: AUGGUUC (DNA:RNA)
RNA: B12 RNA with A30U, A31C
DNA 1: CAATCTGAATTCCGGTCTCCC
DNA 2: TGGTGGCTACGACGGGATT

Each binder was assayed against T1, RBFOX1 RRM (assay: EMSA; HiTS-Eq, 1 nM pool, 10 min; buffer printed only for the single-RNA assays: 10 mM Tris pH 7.5, 150 mM NaCl, 3.4 mM EDTA, 0.001% NP-40, 30 C). Conditions: tags: His6 N-terminal (pET28a); label: 5' 32P.
Summary of the method: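 A pool of RNA with 7 randomized nucleotides, 5′-radiolabelled and with DNA-annealed flanks, was equilibrated at 1 nM for 10 min in 50 µL with purified RbFox RRM, wild type or mutant, across increasing protein concentrations. Free RNA was separated by 8% native PAGE, excised, reverse-transcribed, barcoded by PCR and sequenced. Relative association constants were obtained from read-count changes of each RNA species versus the control reaction and normalised to the cognate motif.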

Which binding signal does the source give for B1 here?
Its binding signal is 0.0174 KA relative to UGCAUGU.

For B2, which binding signal is on record?
The binding signal was 0.0105 KA relative to UGCAUGU.

For B3, which binding signal is on record?
The binding signal was 0.000376 KA relative to UGCAUGU.

With B4 as the binder, how does the binding signal read?
Its binding signal is 0.014 KA relative to UGCAUGU.

Which binding signal does the source give for B5 here?
Its binding signal is 0.00194 KA relative to UGCAUGU.

With B6 as the binder, how does the binding signal read?
Its binding signal is 0.00563 KA relative to UGCAUGU.

B7 was tested. Which binding signal did it give?
Its binding signal is 0.00941 KA relative to UGCAUGU.

How did the binding signal turn out when B8 was run?
Its binding signal is 0.00643 KA relative to UGCAUGU.

B9 was tested. Which binding signal did it give?
The binding signal was 0.00809 KA relative to UGCAUGU.

For B10, which binding signal is on record?
The binding signal was 0.0152 KA relative to UGCAUGU.

For B11, which binding signal is on record?
Its binding signal is 0.00231 KA relative to UGCAUGU.

For B12, which binding signal is on record?
Its binding signal is 0.0106 KA relative to UGCAUGU.

For B13, which binding signal is on record?
Its binding signal is 0.018 KA relative to UGCAUGU.

With B14 as the binder, how does the binding signal read?
The binding signal was 0.0104 KA relative to UGCAUGU.

For B15, which binding signal is on record?
Its binding signal is 0.0115 KA relative to UGCAUGU.

How did the binding signal turn out when B16 was run?
Its binding signal is 0.00801 KA relative to UGCAUGU.

Which binding signal does the source give for B17 here?
The binding signal was 0.00766 KA relative to UGCAUGU.

B18 was tested. Which binding signal did it give?
The binding signal was 0.01 KA relative to UGCAUGU.

B19 was tested. Which binding signal did it give?
Its binding signal is 0.000651 KA relative to UGCAUGU.

Which binding signal does the source give for B20 here?
Its binding signal is 0.015 KA relative to UGCAUGU.
